# Assay results from PubChem BioAssay (NCATS).
# Inconclusive means that the source gave no clear call. Such entries were picked first, then a sample of the others. A potency beside an inconclusive call is a rough fit, not a confirmed value. The source made the active and inactive calls. Calls follow the shape of the dose curve; as a rule, active = well fitted curve in the direction sought with a large enough effect; inconclusive = small, poorly fitted or top-dose-only effect, or another doubt; inactive = no such curve, though single readings can be large; an effect the other way counts as inactive or inconclusive.
# Assays:
# [1] = BET inhibitor-based combinations targeting novel dependencies in MECOM-rearranged (r) AML: HNT-34 cell line (AID 2202234); also: nearly all actives have a fitted effect of over 35% in size
# Procedure, shortened: (§1)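 Cells at 500/well were exposed for 48 hr to MIPE v5.0 drugs as 11-point dose curves. Viability was read by CellTiter-Glo luminescence and normalized to DMSO and empty-well controls. Activity was expressed as AUC and per-cell-line Z-AUC.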
# [2] = BET inhibitor-based combinations targeting novel dependencies in MECOM-rearranged (r) AML: AML-191 cell line (AID 2202236; also: nearly all actives have a fitted effect of over 35% in size)
# Procedure, shortened: (§2)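 AML cell lines seeded at 500 cells/well, treated with 11-point dose curves for 48 h. Viability by CellTiter-Glo luminescence, normalised to DMSO and empty wells; activity expressed as AUC and per-cell-line Z-transformed AUC.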
# [3] = BET inhibitor-based combinations targeting novel dependencies in MECOM-rearranged (r) AML: AML-194 cell line (AID 2202237; also: nearly all actives have a fitted effect of over 40% in size)
# Procedure, shortened: as §2
# [4] = BET inhibitor-based combinations targeting novel dependencies in MECOM-rearranged (r) AML: UCSD-AML1 cell line (AID 2202235); details: UCSD-AML1 AML cells viability, CellTiter-Glo, 48 h; series mostly up to 46 µM; also: nearly all actives have a fitted effect of over 40% in size
# Procedure, shortened: as §1
# Potency is read from the fitted curve at half-maximal effect; tags tell the direction and shape of the fitted curve.
SMILES,Potency [1],Potency [2],Potency [3],Potency [4]
CC(C)(C)NC(=O)Nc1cccc(Nc2ncc(F)c(NC(C)(C)CO)n2)c1,"inconclusive: 3.72 µM [inhibitor, full curve]","inconclusive: 9.34 µM [inhibitor, partial curve]",,
Cc1cc(Nc2cc(N)ncn2)c(=O)n2c1C(=O)NC21CCCCC1,"inconclusive: 16.2 µM [inhibitor, single point]","inconclusive: 7.23 µM [inhibitor, partial curve, poor fit]",inactive,
CCCOc1ccc(CCc2nc3cc(-c4c(C)noc4C)ccc3n2CCN2CCOCC2)cc1,active: 14.8 µM,"inconclusive: 18.6 µM [inhibitor, partial curve]","inconclusive: 23.5 µM [inhibitor, partial curve]","inconclusive: 8.33 µM [inhibitor, partial curve, poor fit]"
COc1cc2c3c(n(CCCNCCO)c(=O)c2cc1OC)-c1cc2c(cc1C3=O)OCO2,active: 0.059 µM,,"inconclusive: 0.372 µM [inhibitor, full curve, poor fit]",active: 0.0742 µM
CCCNC(=O)[C@H]1O[C@@H]1C(=O)N[C@H](C(=O)N1CCC[C@H]1C(=O)OC)C(C)CC (stereo not given in full),active: 23.5 µM,"inconclusive: 16.6 µM [inhibitor, partial curve]",active: 10.5 µM,"inconclusive: 11.8 µM [inhibitor, single point]"
CC(C)(C)c1cc(C(C)(C)C)c(NC(=O)c2c[nH]c3ccccc3c2=O)cc1O,"inconclusive: 26.3 µM [inhibitor, single point]","inconclusive: 37.2 µM [inhibitor, single point]","inconclusive: 29.5 µM [inhibitor, single point]","inconclusive: 37.2 µM [inhibitor, single point]"
